# Test results reported in PubChem BioAssay (NCATS).
# Several values for one entry are separate records, joined by “and”; a condition that tells them apart may be missing. Equal entries are not always repeated. Inconclusive results, whose numbers are uncertain, are shown with a selection of clear calls. For some assays here: A potency beside an inconclusive call is a rough fit, not a confirmed value. Activity calls are given as the source filed them. Unless noted, calls follow the shape of the dose curve; as a rule, active = well fitted curve in either direction with a large enough effect (not every such curve was filed as active); inconclusive = small, poorly fitted or top-dose-only effect, or another doubt; inactive = flat fitted curve, though single readings scatter.
# Columns and labels:
# [1] = AP1 Signaling Pathway (AID 357); settings: ME-180 AP-1-bla reporter, EGF-induced, beta-lactamase ratio, 5 h; also: top concentration of the series differs between compounds; % is scaled to controls: 0 for no effect and ±100 for the full control effect
# Method in brief: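 AP-1-bla ME-180 cells with beta-lactamase reporter under AP-1 response element, stimulated with EC50 EGF; compounds titrated, 5 hours at 37 degrees Celsius. CCF4 read at 460/530 nm ratio; positive and negative modulators judged by AC50.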
# [2] = biological target: Cytochrome P450 1A2 (Homo sapiens) (UniProt P05177); assay: p450-cyp1a2 (AID 410; calls by dose curve; also: potency is read from the fitted curve at half-maximal effect)
# Sequence of UniProt P05177 (P05177 whole entry, looked up): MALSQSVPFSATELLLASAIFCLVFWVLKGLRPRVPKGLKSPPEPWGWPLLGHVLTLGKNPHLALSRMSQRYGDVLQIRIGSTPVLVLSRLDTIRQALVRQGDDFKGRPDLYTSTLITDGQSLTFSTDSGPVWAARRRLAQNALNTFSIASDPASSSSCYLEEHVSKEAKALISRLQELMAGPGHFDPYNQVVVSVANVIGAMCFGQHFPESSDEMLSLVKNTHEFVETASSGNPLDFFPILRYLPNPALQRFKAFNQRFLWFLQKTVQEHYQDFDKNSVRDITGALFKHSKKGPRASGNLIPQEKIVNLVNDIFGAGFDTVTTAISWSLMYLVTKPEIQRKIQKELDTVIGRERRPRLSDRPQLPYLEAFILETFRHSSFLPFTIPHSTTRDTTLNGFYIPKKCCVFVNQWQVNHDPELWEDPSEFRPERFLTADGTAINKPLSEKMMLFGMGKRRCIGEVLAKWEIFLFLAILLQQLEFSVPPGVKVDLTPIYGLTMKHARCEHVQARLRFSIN
# Method in brief: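 Luminescent readout of luciferin formed from Luciferin-ME by human CYP1A2; data normalized against complete inhibition by 57 uM furafylline. Enzyme 20nM, substrate 100uM at Km, 100mM KPO4 buffer, 60 min reaction at room temperature.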
# [3] = qHTS Assay for Identification of Small Molecule Agonists for Thrombopoietin (TPO) Signaling Pathway (AID 917; active = well fitted curve in the direction sought with a large enough effect; inconclusive = small, poorly fitted or top-dose-only effect, or another doubt; inactive = no such curve, though single readings can be large; an effect the other way counts as inactive or inconclusive; also: potency is read from the fitted curve at half-maximal effect; as to activity, positive = activation: % is scaled to controls: 0 for no effect and ±100 for the full control effect); settings: TPO signaling pathway reporter cells, agonist qHTS, stimulated with TPO at its EC50; activity, positive = activation: at 38.5 µM (top of the series)
# Method in brief: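 Reporter: GpIIb promoter–luciferase in murine Ba/F3 expressing human TPO receptor. Pre-starved of IL-3 overnight; compounds with 26 pM TPO, 24 hrs, 37 C/5% CO2; luminescence read.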
# [4] = qHTS Assay for Identification of Small Molecule Antagonists for Thrombopoietin (TPO) Signaling Pathway (AID 918; active = well fitted curve in the direction sought with a large enough effect; inconclusive = small, poorly fitted or top-dose-only effect, or another doubt; inactive = no such curve, though single readings can be large; an effect the other way counts as inactive or inconclusive; also: nearly all actives have a fitted effect of over 60% in size); settings: TPO-dependent cell signaling reporter, antagonist mode; activity change, negative = inhibition: at 38.5 µM (top of the series)
# Method in brief: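 Ba/F3 (murine, hTPO-R, GPIIb-luc reporter); overnight IL-3 withdrawal; cpd + TPO 26 pM final (EC50); 24 h 37 C/5% CO2; Steadylite luminescence after 10 min RT.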
# [5] = biological target: Muscarinic acetylcholine receptor M1 (Rattus norvegicus) (UniProt P08482); assay: qHTS Assay for Antagonists of Acetylcholine Muscarinic M1 Receptor: Measurement of IP-One Response (AID 944; active = well fitted curve in the direction sought with a large enough effect; inconclusive = small, poorly fitted or top-dose-only effect, or another doubt; inactive = no such curve, though single readings can be large; an effect the other way counts as inactive or inconclusive; also: nearly all actives have a fitted effect of over 75% in size; also: potency is read from the fitted curve at half-maximal effect)
# Sequence of UniProt P08482 (P08482 whole entry, looked up): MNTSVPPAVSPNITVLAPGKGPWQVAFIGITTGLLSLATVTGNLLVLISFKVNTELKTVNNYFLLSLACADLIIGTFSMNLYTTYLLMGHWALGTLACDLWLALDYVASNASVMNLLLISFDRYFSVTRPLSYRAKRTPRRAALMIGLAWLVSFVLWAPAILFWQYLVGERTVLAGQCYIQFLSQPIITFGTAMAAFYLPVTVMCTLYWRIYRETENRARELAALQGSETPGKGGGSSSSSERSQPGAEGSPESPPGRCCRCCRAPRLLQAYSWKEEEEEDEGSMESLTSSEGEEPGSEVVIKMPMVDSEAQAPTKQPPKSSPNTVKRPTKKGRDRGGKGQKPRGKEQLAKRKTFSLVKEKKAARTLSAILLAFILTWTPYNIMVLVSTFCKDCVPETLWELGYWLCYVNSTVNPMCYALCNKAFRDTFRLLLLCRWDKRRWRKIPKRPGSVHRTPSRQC
# [6] = NFAT Signaling Pathway (AID 444); settings: Jurkat NFAT-bla M1, carbachol, beta-lactamase ratio, 5 h;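 also: carbachol stimulus at about its EC50 of 1 µM final; % is scaled to controls: 0 for no effect and ±100 for the full control effect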
# Method in brief: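 Jurkat cells carrying an NFAT-driven β-lactamase reporter and co-transfected muscarinic M1 receptor were treated with compound plus carbachol (1 uM final, an EC50 level) for 5 h at 37 °C. CCF4 loading followed for 1 h at RT; 460/530 nm ratio gave %activity.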
# [7] = Stat Signaling Pathway (AID 446); settings: ME-180 SIE beta-lactamase reporter, IL-6 stimulated, 5 h; at 7.69 µM (top of the series) unless noted;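 also: ME-180 cervical cancer cells given 40 pM IL-6 alongside compound; SIE-controlled beta-lactamase reporter measured as 460/530 nm FRET emission ratio; top concentration of the series differs between compounds; % is scaled to controls: 0 for no effect and ±100 for the full control effect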
# Method in brief: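 ME-180 cells carrying a SIE-driven beta-lactamase reporter are stimulated with 40 pM IL-6 for 5 h at 37C in the presence of compound. The 460/530 nm FRET substrate ratio is read after 2.5 h at RT. Data are normalised to 300 pM IL-6 and to 125 nM JAK inhibitor controls.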
# [8] = biological target: Glucocorticoid receptor (Homo sapiens) (UniProt P04150); assay: GR-EFC Redistribution (AID 451; calls by dose curve; also: potency is read from the fitted curve at half-maximal effect); settings: CHO-K1 GR-EFC translocation, beta-gal luminescence, 2 h
# Sequence of UniProt P04150 (P04150 whole entry, looked up, the tested form may be a part): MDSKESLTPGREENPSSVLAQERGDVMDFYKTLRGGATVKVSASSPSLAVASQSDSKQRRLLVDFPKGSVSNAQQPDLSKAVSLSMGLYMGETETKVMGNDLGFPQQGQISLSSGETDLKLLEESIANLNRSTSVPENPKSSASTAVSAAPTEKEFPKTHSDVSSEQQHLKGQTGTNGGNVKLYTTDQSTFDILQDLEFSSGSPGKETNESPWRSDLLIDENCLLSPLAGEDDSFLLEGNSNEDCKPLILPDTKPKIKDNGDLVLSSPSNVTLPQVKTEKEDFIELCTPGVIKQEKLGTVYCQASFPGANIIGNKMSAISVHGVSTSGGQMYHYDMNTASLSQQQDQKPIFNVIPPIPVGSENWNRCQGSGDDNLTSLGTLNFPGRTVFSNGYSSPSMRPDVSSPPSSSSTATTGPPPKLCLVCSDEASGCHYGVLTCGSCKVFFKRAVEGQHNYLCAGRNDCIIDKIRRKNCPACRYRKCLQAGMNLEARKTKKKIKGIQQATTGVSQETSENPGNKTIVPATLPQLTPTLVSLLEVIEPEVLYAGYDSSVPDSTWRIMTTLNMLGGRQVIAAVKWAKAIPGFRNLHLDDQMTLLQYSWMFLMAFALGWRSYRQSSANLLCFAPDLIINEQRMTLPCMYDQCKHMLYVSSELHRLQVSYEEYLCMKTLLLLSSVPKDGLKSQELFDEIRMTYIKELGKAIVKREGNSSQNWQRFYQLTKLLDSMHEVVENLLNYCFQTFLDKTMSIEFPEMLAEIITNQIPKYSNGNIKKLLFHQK
# Method in brief: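 CHO-K1 cells stably expressing nuclear-localized β-gal enzyme acceptor and GR fused C-terminally to the enzyme donor fragment; ligand-driven nuclear translocation restores β-gal by complementation. Compounds titrated up to 46 uM final, 2 h at 37 °C; luminescence read.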
# [9] = biological target: Cytochrome P450 2C9 (Homo sapiens) (UniProt P11712); assay: qHTS Assay for Inhibitors and Substrates of Cytochrome P450 2C9 (AID 883; active = well fitted curve in the direction sought with a large enough effect; inconclusive = small, poorly fitted or top-dose-only effect, or another doubt; inactive = no such curve, though single readings can be large; an effect the other way counts as inactive or inconclusive; also: potency is read from the fitted curve at half-maximal effect; nearly all actives have a fitted effect of over 60% in size); settings: recombinant CYP2C9, luciferin-H luminescence, 60 min; activity change, negative = inhibition: at 57.1 µM (top of the series)
# Sequence of UniProt P11712 (P11712 whole entry, looked up): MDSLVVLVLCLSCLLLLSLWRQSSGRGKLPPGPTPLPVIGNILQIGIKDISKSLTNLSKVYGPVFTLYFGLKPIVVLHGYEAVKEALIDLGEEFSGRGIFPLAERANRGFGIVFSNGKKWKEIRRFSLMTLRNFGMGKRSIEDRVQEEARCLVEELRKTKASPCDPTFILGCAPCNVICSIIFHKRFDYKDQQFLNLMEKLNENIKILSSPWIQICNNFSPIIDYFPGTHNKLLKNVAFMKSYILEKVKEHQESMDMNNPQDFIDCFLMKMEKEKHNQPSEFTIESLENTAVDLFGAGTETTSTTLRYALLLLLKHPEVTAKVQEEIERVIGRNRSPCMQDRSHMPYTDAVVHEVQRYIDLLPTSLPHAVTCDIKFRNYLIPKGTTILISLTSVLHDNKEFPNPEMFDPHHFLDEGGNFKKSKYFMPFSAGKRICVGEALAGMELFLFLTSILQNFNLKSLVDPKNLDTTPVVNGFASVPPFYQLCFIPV
# Method in brief: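 CYP2C9 deoxyluciferin hydroxylation, 37C, 60 min with NADPH regeneration; 10nM enzyme, 100uM Luciferin-H (KM). Glo detection reagent stopped reaction; luminescence normalized to sulphaphenazole (57uM) full inhibition.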
# [10] = biological target: Cytochrome P450 2D6 (Homo sapiens) (UniProt P10635); assay: qHTS Assay for Inhibitors and Substrates of Cytochrome P450 2D6 (AID 891; active = well fitted curve in the direction sought with a large enough effect; inconclusive = small, poorly fitted or top-dose-only effect, or another doubt; inactive = no such curve, though single readings can be large; an effect the other way counts as inactive or inconclusive;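 also: luciferin methyl ether substrate demethylated by CYP2D6 with NADPH regeneration; potency is read from the fitted curve at half-maximal effect; nearly all actives have a fitted effect of over 60% in size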); settings: recombinant CYP2D6, luciferin-ME EGE luminescence; activity change, negative = inhibition: at 57.1 µM (top of the series)
# Sequence of UniProt P10635 (P10635 whole entry, looked up): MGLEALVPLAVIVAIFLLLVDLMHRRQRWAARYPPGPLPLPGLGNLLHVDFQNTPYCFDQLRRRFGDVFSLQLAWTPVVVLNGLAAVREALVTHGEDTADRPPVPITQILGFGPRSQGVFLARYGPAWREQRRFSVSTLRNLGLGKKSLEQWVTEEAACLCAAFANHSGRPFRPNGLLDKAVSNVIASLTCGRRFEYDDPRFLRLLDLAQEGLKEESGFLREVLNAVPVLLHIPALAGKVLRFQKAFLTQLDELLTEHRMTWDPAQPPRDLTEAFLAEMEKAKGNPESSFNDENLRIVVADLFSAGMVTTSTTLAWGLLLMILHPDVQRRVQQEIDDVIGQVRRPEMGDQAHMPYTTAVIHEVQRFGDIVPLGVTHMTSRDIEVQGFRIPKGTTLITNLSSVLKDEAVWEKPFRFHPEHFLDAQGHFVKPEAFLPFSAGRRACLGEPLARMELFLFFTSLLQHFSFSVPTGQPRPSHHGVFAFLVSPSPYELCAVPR
# Method in brief: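 Human CYP2D6 (5 nM) with 30 uM Luciferin-ME EGE (at Km) in 100 mM KPO4, compound preincubated 10 min, then NADPH regeneration system for 60 min at room temperature. Luciferin read by luminescence; normalized to 1.43 uM quinidine.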
# [11] = biological target: Cytochrome P450 2C19 (Homo sapiens) (UniProt P33261); assay: qHTS Assay for Inhibitors and Substrates of Cytochrome P450 2C19 (AID 899; active = well fitted curve in the direction sought with a large enough effect; inconclusive = small, poorly fitted or top-dose-only effect, or another doubt; inactive = no such curve, though single readings can be large; an effect the other way counts as inactive or inconclusive; also: potency is read from the fitted curve at half-maximal effect; nearly all actives have a fitted effect of over 60% in size)
# Sequence of UniProt P33261 (P33261 whole entry, looked up): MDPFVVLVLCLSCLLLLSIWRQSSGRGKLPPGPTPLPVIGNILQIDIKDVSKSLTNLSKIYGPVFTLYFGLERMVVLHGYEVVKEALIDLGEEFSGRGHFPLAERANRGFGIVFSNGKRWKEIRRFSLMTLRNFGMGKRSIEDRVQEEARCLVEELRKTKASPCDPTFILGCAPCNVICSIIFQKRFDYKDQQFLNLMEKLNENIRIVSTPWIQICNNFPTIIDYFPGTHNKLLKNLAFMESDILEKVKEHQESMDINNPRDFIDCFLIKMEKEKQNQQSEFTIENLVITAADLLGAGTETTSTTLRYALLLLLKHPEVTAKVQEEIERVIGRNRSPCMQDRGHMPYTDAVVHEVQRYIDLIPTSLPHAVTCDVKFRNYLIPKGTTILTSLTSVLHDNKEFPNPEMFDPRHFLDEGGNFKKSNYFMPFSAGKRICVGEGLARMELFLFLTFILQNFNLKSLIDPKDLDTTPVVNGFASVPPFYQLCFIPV
# Method in brief: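 In 50mM KPO4, the reaction held 5nM enzyme and KM-level (10uM) Luciferin-H EGE; it ran 60 min at 37C after NADPH regeneration and a 10 min compound preincubation. Luminescence values were scaled to 57uM ketoconazole as complete inhibition.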
# [12] = qHTS Assay for Identification of Small Molecule Agonists for Hypoxia Response Element Signaling Pathway (AID 914; active = well fitted activation curve with a large enough effect in the signal ratio, with a control signal flat, not every such curve was filed as active; inconclusive = small, poorly fitted or top-dose-only effect, or effect the other way, or a change in a side signal; the % refers to the signal ratio; also: potency is read from the fitted curve at half-maximal effect); settings: ME-180 (cervical carcinoma) HRE-bla reporter, beta-lactamase ratio, CoCl2, 17 h; activation: stronger effect = higher value
# Method in brief: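 HRE-bla ME-180 cells, overnight plating in Opti-MEM with 0.5% dialyzed FBS; cpd titration + EC50 CoCl2, 17 h, 37 degrees Celsius; CCF4 2.5 h RT; 460/530 nm ratio; AC50.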
# [13] = biological target: Mitogen-activated protein kinase 10 (Mus musculus) (UniProt Q61831); assay: JNK3 AlphaScreen Assay (AID 530); settings: JNK3 lysate, c-Jun phosphorylation; activity change, negative = inhibition: at 57.1 µM (top of the series);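 also: kinase came from lysate of stimulated human HepG2 cells; signal reports phosphorylation of biotinylated GST-cJun 1-79 at Ser73 with 10 µM ATP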; also: potency is read from the fitted curve at half-maximal effect
# Method in brief: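 Inhibitors reduce antibody binding to phosphorylated biotin-cJun, lowering AlphaScreen luminescence. Lysates from HepG2 cells pre-activated by IL-1beta plus TNF-alpha supplied JNK3; compounds were titrated.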
# [14] = biological target: Muscarinic acetylcholine receptor M1 (Rattus norvegicus) (UniProt P08482); assay: qHTS Assay for Antagonists of Acetylcholine Muscarinic M1 Receptor: Kinetic Measurement of Intracellular Calcium Response (AID 943; active = well fitted curve in the direction sought with a large enough effect; inconclusive = small, poorly fitted or top-dose-only effect, or another doubt; inactive = no such curve, though single readings can be large; an effect the other way counts as inactive or inconclusive; also: potency is read from the fitted curve at half-maximal effect; nearly all actives have a fitted effect of over 75% in size)
# Method in brief: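 Rat M1-CHO cells, 2000/well, overnight → Fluo-4 no-wash dye with probenecid, 1 h 37C → compound 10 min, room temp → basal read 6 s → carbachol EC80 (100 nM) → 4 min kinetic read; peak/basal.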
# [15] = at 17.2 µM (top of the series) unless noted
# Tags tell the direction and shape of the fitted curve or compound fluorescence and quenching.
smiles,measurement,setting,value
CC(C)=C[C@H]1[C@@H](C(=O)Oc2ccccc2C(C)C)C1(C)C,"activity change, negative = inhibition",[1]; [15],inactive: 9.15% [at 7.69 µM]
same,Potency,[2],inconclusive: 3.98 µM [decreasing]
N#C/C(C(=O)N1CCOCC1)=C1/SC(Cc2ccccc2)C(=O)N1c1ccccc1 (centres undefined),"activity change, negative = inhibition",[1]; [15],inactive: 6.74%
c1ccc([C@@H]2CN3CCSC3=N2)cc1,"activity change, negative = inhibition",[1]; at 17.2 µM (top of the series),inactive: 0.374%
same,"activity change, negative = inhibition",[1]; at 38 µM (top of the series),inactive: 8.49% and inactive: 7.24%
same,Potency,[3],inactive
same,"activity change, negative = inhibition",[4],inconclusive: 3.58% [phenotype inactive] and inconclusive: -7.02% [phenotype inactive]
same,Potency,[5],"inactive and inconclusive: 12.6 µM [inhibitor, partial curve, poor fit]"
Cc1ccc(Cn2ncc3c(N4CCN(c5ccc(C)cc5)CC4)ncnc32)cc1,"activity change, negative = inhibition",[1]; [15],inconclusive: 43.5% [activator]
Cc1cc(Cl)nc(NC(=O)CSc2ccc(Cl)cc2)n1,"activity change, negative = inhibition",[1]; [15],inconclusive: 1.4% [activator] [at 7.69 µM]
O=C(c1ccc([N+](=O)[O-])cc1)[C@@H](Br)[C@@H](Br)c1ccnc2ccccc12,"activity change, negative = inhibition",[1]; [15],inactive: -11.4% [at 7.69 µM]
same,Potency,[2],inconclusive: 1.26 µM [decreasing]
same,"activity change, negative = inhibition",[6]; [15],inconclusive: -84.6% [inhibitor] [at 7.69 µM]
same,"activity, negative = inhibition",[7],inconclusive: -45% [inhibitor]
same,Potency,[8],inconclusive: > 9.22 µM [single point]
same,Potency,[9],active: 3.16 µM
same,Potency,[10],"inconclusive: 3.98 µM [inhibitor, partial curve]"
same,Potency,[11],active: 1.26 µM
same,Potency,[12],"inconclusive: 5.01 µM [inhibitor, single point]"
Cc1ccc(/C(=C/CN2CCCC2)c2ccccn2)cc1,"activity change, negative = inhibition",[1]; at 17.2 µM (top of the series),inconclusive: 53.4% [activator]
same,"activity change, negative = inhibition",[1]; at 38 µM (top of the series),inconclusive: 54.8% [activator]
same,"activity change, negative = inhibition",[6]; at 17.2 µM (top of the series),inconclusive: -64.7% [inhibitor]
same,"activity change, negative = inhibition",[6]; at 38 µM (top of the series),inconclusive: -78.3% [inhibitor]
same,Potency,[13],"inconclusive: 50.1 nM [activator, full curve, poor fit] and inactive"
same,Potency,[3],"inconclusive: 3.98 µM [inhibitor, single point]"
same,Potency,[14],active: 1.26 µM
same,Potency,[5],"inconclusive: 3.98 µM [inhibitor, full curve, poor fit]"
CN(C)CCCN1c2ccccc2Sc2ccc3ccccc3c21,"activity change, negative = inhibition",[1]; [15],inconclusive: 30.2% [activator] [at 7.69 µM]
same,"activity change, negative = inhibition",[6]; [15],inconclusive: -74.2% [inhibitor] [at 7.69 µM]
